Among all 94,000 compounds or so, about 6,200 (6.6%) were called active. The shares of active, inactive and inconclusive entries below differ from those in the screen. The call rests on the fitted dose curve; in most records, active means well fitted inhibition curve with a large enough effect; inconclusive means small, poorly fitted or top-dose-only effect; inactive means flat fitted curve, though single readings scatter. Potencies beside an inconclusive call are fits to weak or partial responses and may not hold up.
Assay: Cytotoxic Profiling in HEK 293 Cell Line of Diverse Libraries Using Quantitative High-Throughput Screening; further: nearly all actives have a fitted effect of over 60% in size
Details: HEK 293 viability, ATP luminescence (CellTiter-Glo), 48-72 h; series mostly up to 115 µM
In short: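 250 HEK 293 cells/well; compound by pintool; incubated 48 or 72 hr at 37 degree Celsius; CellTiter-Glo added, 10 min RT, luminescence imaged.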
With `COc1cccc(C(=O)N2CCCC(C(=O)N3CCC(N4Cc5cccn5C4=O)CC3)C2)c1` (configuration not stated) the Potency was inconclusive: 39.8 µM [inhibitor, full curve].
For `O=C(CC1CCCC1)N1C[C@@H](CO)[C@@H]2Oc3c(F)cccc3[C@@H]21`, the Potency was inconclusive: 79.4 µM [inhibitor, partial curve, poor fit].
With `O=C1CC2(CCN(C(=O)C3CCN(C(=O)c4ccccc4F)CC3)CC2)Oc2ccccc2N1` the Potency was inconclusive: 56.2 µM [inhibitor, partial curve, poor fit].
With `COc1ccc(-c2cc(N3CCCC(NC(=O)c4ccncc4)C3)n[nH]2)cc1` (configuration not stated) the Potency was inconclusive: 39.8 µM [inhibitor, full curve, poor fit].
With `O=C1NC2(Cc3ccccc31)CN(CC1CCNC1)C2` (configuration not stated) the Potency was “inactive”.
In the case of `COCCNC(=O)C1(C)CCc2cnc(NCc3ccccc3)nc21` (configuration not stated), the Potency is reported as “inactive”.
For `Cn1ccc(CN2CCn3c(nn(-c4ccc(F)cc4F)c3=O)C2)c1`, the Potency was inconclusive: 89.1 µM [inhibitor, single point].
In the case of `CC1(c2ccccc2)N(Cc2ccccc2)C(=O)OC12CCN(Cc1cccnc1)CC2` (configuration not stated), the Potency is reported as inconclusive: 89.1 µM [inhibitor, partial curve, poor fit].
For `COC(=O)c1cccc(COC2CN(c3c(Cl)cccc3Cl)[S+](=O)([O-])c3ccccc32)c1` (configuration not stated), the Potency was inconclusive: 50.1 µM [inhibitor, partial curve, poor fit].
With `COC[C@@]12CN(Cc3ccc(C(=O)O)cc3)C[C@@H]1C(C)(C)COc1ccc(OC)cc12` the Potency was “inactive”.
With `COc1ccc(C(=O)N2CCC3(CC2)NC(=O)N(Cc2ccccc2)C3=O)cc1` the Potency was “inactive”.
For `O=C(c1ccc(C(F)(F)F)cc1)N1CCC2(CC1)CC(c1cccc(C(F)(F)F)c1)=NO2`, the Potency was active: 39.8 µM.
For `COc1cccc(-c2cn3c(n2)N(C(=O)c2cccs2)CCC3)c1`, the Potency was inconclusive: 39.8 µM [inhibitor, partial curve, poor fit].
For `COc1ccc(C(=O)N2C[C@@H]3C[C@H](C2)c2ccc(NS(=O)(=O)c4ccc(NC(C)=O)cc4)c(=O)n2C3)cc1`, the Potency was “inactive”.
For `N#Cc1ccc(C(=O)N2CCCCCCNC(=O)[C@@H]3CCCC[C@@H]32)cc1`, the Potency was “inactive”.
With `CCC(C)NC(=O)C(NC(=O)c1cccc(OC)c1)C1CCN(C(=O)c2cccc(C)c2)CC1` (configuration not stated) the Potency was “inactive”.
With `CC(C)NC(=O)C[C@@H]1c2nc(NC(=O)C3CCCCC3)sc2C[C@@H]2[C@](C)(CO)[C@H](O)CC[C@]21C` the Potency was “inactive”.
In the case of `O=[S+]1([O-])NC2(CCN(Cc3ccccc3C(F)(F)F)C2)CNc2ccccc21` (configuration not stated), the Potency is reported as active: 39.8 µM.
For `O=C1CCN(S(=O)(=O)c2ccccc2)CCCN(C(=O)c2cc3ccccc3[nH]2)CCN1`, the Potency was inconclusive: 56.2 µM [inhibitor, partial curve, poor fit].
In the case of `COc1ccccc1-c1nc(C(=O)N2CCN(c3ncccn3)CC2)n2ccncc12`, the Potency is reported as inconclusive: 70.8 µM [inhibitor, partial curve, poor fit].
For `COc1ccccc1Nc1ccnc(N2CCC[C@H]2C(=O)NCc2cccnc2)n1`, the Potency was inconclusive: 50.1 µM [inhibitor, partial curve, poor fit].
In the case of `O=C1NC2(CCN([S+](=O)([O-])c3cccc(C(F)(F)F)c3)C2)Oc2ccccc21` (configuration not stated), the Potency is reported as inconclusive: 35.5 µM [inhibitor, partial curve, poor fit].
In the case of `COc1ccc(CN2CCNc3cnc(Nc4cccnc4)cc3C2)cc1O`, the Potency is reported as inconclusive: 63.1 µM [inhibitor, partial curve, poor fit].
In the case of `COc1ccc(F)c(-c2nc(COc3ccc(-n4cnnc4)cc3)c(C)o2)c1`, the Potency is reported as inconclusive: 50.1 µM [inhibitor, partial curve, poor fit].
For `CC(=O)NC1(C)CCN(Cc2cccc(-c3ccc4c(ccn4C)c3)c2)C1` (configuration not stated), the Potency was active: 89.1 µM.
With `Cc1ccc(-c2ccc3nnc(CNC(=O)c4cc(Cl)ccc4F)n3n2)cc1` the Potency was inconclusive: 89.1 µM [inhibitor, partial curve, poor fit].
In the case of `O=C1OC[C@@H]2CCN(Cc3ccccc3F)Cc3ccc(F)cc3N12`, the Potency is reported as “inactive”.
With `O=C(CCc1ccccc1)N1CC(Oc2ccccc2-c2nc(-c3ccccc3)no2)C1` the Potency was active: 39.8 µM.
For `COc1ccc(-c2cc3c(ccn3C)c(C(=O)NCc3c(C)cc(C)[nH]c3=O)n2)cc1`, the Potency was inconclusive: 100 µM [inhibitor, partial curve].
For `COc1ccc(-c2cc(N3CCN(C(=O)c4cc(OC)cc(OC)c4)CC3)n[nH]2)cc1`, the Potency was inconclusive: 50.1 µM [inhibitor, partial curve, poor fit].
With `O=C(NCC1CN(C(=O)Cc2cccc(Cl)c2)CC12CN(c1ccccc1)C2)c1ccccc1` (configuration not stated) the Potency was inconclusive: 35.5 µM [inhibitor, full curve, poor fit].
In the case of `COc1ccc(CN2CC(N(C)c3ccccc3C)C2)cc1`, the Potency is reported as inconclusive: 89.1 µM [inhibitor, partial curve, poor fit].
For `Cc1cccc(CC(=O)N2CCCn3cc(-c4cccc(C#N)c4)nc32)c1`, the Potency was inconclusive: 35.5 µM [inhibitor, full curve].
With `Cc1ccc(C)c(-c2cc3c(=O)n(CCNC(=O)c4ccccc4F)ccn3n2)c1` the Potency was inconclusive: 7.94 µM [inhibitor, full curve, poor fit].
For `Cn1nccc1-c1cc2c(cn1)CN(Cc1ccncc1)CCN2`, the Potency was inconclusive: 112 µM [inhibitor, partial curve, poor fit].
In the case of `Cn1cc(CN2C[C@H](C(=O)NCc3cccc(F)c3)C[C@H]2c2cccc(C(F)(F)F)c2)cn1`, the Potency is reported as inconclusive: 89.1 µM [inhibitor, single point].
For `O=C(CCc1ccccc1)N1C[C@@H](CO)[C@@H]2Oc3c(F)cccc3[C@@H]21`, the Potency was inconclusive: 89.1 µM [inhibitor, single point].
For `O=C(COc1ccccc1)N1CCC(c2nc(C3CCOCC3)no2)CC1`, the Potency was inconclusive: 79.4 µM [inhibitor, partial curve, poor fit].
For `CN(Cc1nc(-c2ccccc2)cs1)C(=O)c1cccc(-n2cnnc2)c1`, the Potency was inconclusive: 89.1 µM [inhibitor, single point].
For `O=C(NC1CCCCC1)O[C@@H]1CO[C@H]2[C@@H]1OC[C@@H]2n1nnnc1SCc1ccco1`, the Potency was inconclusive: 89.1 µM [inhibitor, partial curve, poor fit].
With `c1ccc2oc(-c3ccnc4nc(C5CCC5)nn34)cc2c1` the Potency was inconclusive: 44.7 µM [inhibitor, partial curve, poor fit].
With `COc1ccc(F)cc1-c1nc2ccc(-c3ccc(OC)c(OC)c3OC)cc2o1` the Potency was inconclusive: 79.4 µM [inhibitor, partial curve].
For `O=C(NC1CCN(c2cc(-c3ccc(Cl)cc3)[nH]n2)CC1)c1ccc(F)cc1F`, the Potency was inconclusive: 35.5 µM [inhibitor, partial curve, poor fit].
For `CN[C@@H](C)C(=O)N[C@@]1(C)OC[C@@H]2CC[C@H](C(=O)Nc3ccc(F)c(OC)c3)N2C1=O`, the Potency was inconclusive: 70.8 µM [inhibitor, partial curve].
For `O=C(c1ccncc1)N1CCC(c2noc(COc3ccc(F)cc3)n2)CC1`, the Potency was inconclusive: 56.2 µM [inhibitor, partial curve, poor fit].
For `CCN1CC2(CCN(C(=O)CC(Cc3ccccc3)c3ccco3)CC2)CC1=O` (configuration not stated), the Potency was inconclusive: 89.1 µM [inhibitor, single point].
For `COc1ccc(OC)c(CN2CCNc3cc(-c4ccnc(C)c4)ncc3C2)c1`, the Potency was active: 100 µM.
For `CSc1cccc(NC(=O)Cn2nc3n(c2=O)CCCCC3)c1`, the Potency was “inactive”.
In the case of `O=C(Cn1ccn2nc(-c3ccc(F)cc3)c(CO)c2c1=O)N1CCC(Cc2ccccc2)CC1`, the Potency is reported as “inactive”.
With `CC(=O)Nc1ccc(CN2CCCC3(C2)NC(=O)c2ccccc2O3)cc1` (configuration not stated) the Potency was “inactive”.
For `COCc1nnc(NC(=O)C2c3ccccc3C(=O)N(C3CCCC3)C23CCCC3)s1` (configuration not stated), the Potency was inconclusive: 79.4 µM [inhibitor, partial curve, poor fit].
For `CCCCNC(=O)CC(c1cccc(OC)c1OC)c1c[nH]c2ccccc12` (configuration not stated), the Potency was inconclusive: 79.4 µM [inhibitor, single point].
With `COc1ccccc1CCC(=O)N1CCc2nn(C)c(=O)n2CC1` the Potency was “inactive”.
For `COc1ccc(C(=O)N2C[C@@H]3OCC(=O)N(CC4CC4)[C@@H]3C2)cc1`, the Potency was “inactive”.
With `O=C(Cc1cccc(F)c1)NCCn1ccn2nc(-c3ccc(F)cc3)cc2c1=O` the Potency was inconclusive: 39.8 µM [inhibitor, full curve].
For `O=C(O)c1cccc(-c2cnc3ccccc3c2)c1`, the Potency was “inactive”.
With `Cc1ccc(C(=O)N2CCCC3(C2)Nc2cccnc2NC3=NC2CCCC2)cc1F` (configuration not stated) the Potency was active: 70.8 µM.
In the case of `Cc1cnc(-c2ccccc2)n1C1CCCN(C(=O)C(C)C)C1` (configuration not stated), the Potency is reported as inconclusive: 89.1 µM [inhibitor, single point].
In the case of `CCCn1c(C)cnc1CC1CCN(S(=O)(=O)c2cccs2)CC1`, the Potency is reported as inconclusive: 56.2 µM [inhibitor, partial curve, poor fit].
For `O=C1CN(CC(=O)N2CCC3(CC2)OCCCC3O)C(=O)N1` (configuration not stated), the Potency was “inactive”.
With `CCC(C)NC(=O)c1ccc(-c2nnc3ccc(NC(=O)C4CC4)cn23)cc1` (configuration not stated) the Potency was inconclusive: 79.4 µM [inhibitor, single point].
With `Cc1csc(NC(=O)[C@@H]2C[C@@H](c3ccc(F)cc3)N([S+](=O)([O-])c3cccnc3)C2)n1` the Potency was inconclusive: 79.4 µM [inhibitor, single point].
Potency means the concentration at half of the fitted maximal effect; tags describe the fitted curve by direction and shape.
